Molecules are shown by their SMILES.

The experiment concerns ethylene signaling pathway. The settings on record: 7-day-old seedlings, normal conditions, vs mock.

Turning to `NC1(C(=O)O)CC1` [ACC, 1-aminocyclopropane-1-carboxylic acid], the “GUS activity in root tips of pEBF2::GUS reporter line” value is “strong GUS activity”.

Source of the values: US10524471B2, “Compositions and methods for increasing salt tolerance in plants” (King Abdullah University of Science and Technology, priority 2016, dated 2020).
